Experimental data published in PubChem BioAssay AID1347417 (National Center for Advancing Translational Sciences (NCATS), 2020).
Screen size: about 120,000 compounds; about 5,300 (4.4%) were called active. This list was built around the results that the source calls inconclusive (neither active nor inactive); the mix of calls is not that of the screen. Calls follow the shape of the dose curve; as a rule, active = well fitted inhibition curve with a large enough effect; inconclusive = small, poorly fitted or top-dose-only effect; inactive = no such curve, though single readings can be large or run the other way. A potency beside an inconclusive call is a rough fit, not a confirmed value.

Assay: qHTS Primary assay for Inhibitors of Plasmodium falciparum Dd2 growth in vitro; also: nearly all actives have a fitted effect of over 65% in size
Settings: P. falciparum Dd2 growth, SYBR Green, 72 h; series mostly up to 28.9 µM
Summary of the method: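 Infected erythrocytes (Dd2, 0.3% parasitemia, 2.5% hematocrit final) are added to compound in RPMI-1640/Albumax II medium, grown 72 h at 37C in low oxygen, then lysed with saponin/Triton-X containing SYBR Green and read by fluorescence.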
Potency is read from the fitted curve at half-maximal effect; tags tell the direction and shape of the fitted curve.

| SMILES | Potency |
| --- | --- |
| COc1ncccc1-c1cnc2[nH]cc(CC(=O)Nc3ccccc3C)c2c1 | active: 10 µM |
| Cc1nc(-c2cnccn2)n(CC(=O)Nc2cccc(C(F)(F)F)c2)c(=O)c1CCO | inconclusive: 10 µM [inhibitor, partial curve, poor fit] |
| CCc1cccc(C)c1NC(=O)Cn1ccn2nc(-c3ccc(F)cc3)c(CO)c2c1=O | inconclusive: 3.98 µM [inhibitor, single point] |
| CCN(CC)Cc1cnc2c(C(=O)N(C)CCc3ccccn3)cnn2c1 | inactive |
| Cc1cn2nc(-c3nc(C4CCCN(C(=O)c5cccc(Cl)c5)C4)no3)cc2c(=O)[nH]1 (stereo not drawn) | inconclusive: 0.0631 µM [inhibitor, full curve, poor fit] |
| O=S(=O)(c1ccc(Br)cc1)c1nnn2c1nc(NC1CCCCCC1)c1sccc12 | inconclusive: 7.94 µM [inhibitor, single point] |
| COCCNS(=O)(=O)c1cccc2c1CN(C(=O)CCn1cncn1)CC2 | inactive |
| Cc1ncoc1C(=O)N1CCCCCC1c1nnc(-c2ccccc2)o1 (stereo not drawn) | inconclusive: 0.355 µM [inhibitor, full curve] |
| O=C(Cc1cccs1)Nc1ccc(-c2nnc3n2CCCC3)cc1 | inconclusive: 11.2 µM [inhibitor, single point] |
| COc1ccc(C(C)NC(=O)C2(c3ccc(NS(C)(=O)=O)cc3)CCCCC2)cc1 (stereo not drawn) | inconclusive: 20 µM [inhibitor, single point] |
| CCOC(=O)C1=CN(CC(=O)NCc2ccc(Cl)cc2)S(=O)(=O)N=C1C | inactive |
| COc1ccccc1-c1noc(CSc2nnc(Cc3ccccc3)n2-c2ccc(C)c(C)c2)n1 | inconclusive: 8.91 µM [inhibitor, single point] |
| Cn1ccnc1CN[C@@H]1C[C@H](CO)[C@@H](O)[C@H]1O | inactive |
| CC(C)c1ccc(C(=O)N2CCCC[C@H](N(C)C)C2)c(=O)n1C | inactive |
| COc1ccc(-c2[nH]ncc2CNC(=O)C(c2ccccc2F)N(C)C)cc1 (stereo not drawn) | inconclusive: 17.8 µM [inhibitor, single point] |
| O=C(c1ccccc1)N1CCC(N2C(=O)C(OCC3CC3)C23CCCCC3)CC1 (stereo not drawn) | inconclusive: 10 µM [inhibitor, single point] |
| CCOc1ccc(CNC(=O)CCC(=O)N2CC3CCCN3c3ccccc32)cc1 (stereo not drawn) | active: 12.6 µM |
| COc1ccc(NC(=O)N[C@@H]2C=C[C@@H](c3c(C)nn(-c4ccc(C(C)(C)C)cc4)c3C)C2)cc1 | inconclusive: 5.01 µM [inhibitor, partial curve, poor fit] |
